{"source": "the supplement of paper PMC8728848", "binders": {"B1": {"name": "Cohesin-marm-DC-ASGPR-CRD (protein)", "chain": "LDITSHHHHHHDDLDAVRIKVDTVNAKPGDTVRIPVRFSGIPSKGIANCDFVYSYDPNVLEIIEIEPGDIIVDPNPDKSFDTAVYPDRKIIVFLFAEDSGTGAYAITKDGVFATIVAKVKEGAPNGLSVIKFVEVGGFANNDLVEQKTQFFDGGVNVGDTTEPATPTTPVTTPTTTDDLDAASCPINWVEHQGSCYWFSRSGKTWPEAERYCQLENTHLVVINSREEQNFVQAHLGSAYTWMGLSDPEGVWKWVDGTDYSSGFQNWKPGQPDDWQGHGLGGGEDCAHFHPDGRWNDDVCQRSYHWVCEAGLTQASQDSH"}}, "test_in_all_cases": "glycan array binding signal (z-score within array); higher = stronger binding", "conditions_in_all_cases": "glycan notation: IUPAC condensed, linker removed", "key": {"[1]": {"molecular_target": "Gal(b1-3)[Fuc(a1-4)]GlcNAc(b1-6)GalNAc", "procedure,_shortened": "(§1)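 Arrays were curated from the Consortium for Functional Glycomics database, 3228 in total, and kept only where the protein sequence was available. Binding is expressed as a within-array Z-score. This score was averaged across arrays of the same protein sequence at different concentrations or buffers and across linkers, and negative values can be read as non-binding.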"}, "[2]": {"molecular_target": "Gal(b1-3)[GlcNAc(b1-6)]GalNAc", "procedure,_shortened": "as §1"}, "[3]": {"molecular_target": "Gal(b1-3)[Neu5Ac(a2-6)]GalNAc", "procedure,_shortened": "as §1"}, "[4]": {"molecular_target": "Gal(b1-3)[Neu5Ac(a2-6)]GlcNAc(b1-4)Gal(b1-4)Glc", "procedure,_shortened": "as §1"}, "[5]": {"molecular_target": "Gal(b1-3)[Neu5Ac(b2-6)]GalNAc", "procedure,_shortened": "as §1"}, "[6]": {"molecular_target": "Gal(b1-4)Gal", "procedure,_shortened": "as §1"}, "[7]": {"molecular_target": "Gal(b1-4)GalNAc(a1-3)[Fuc(a1-2)]Gal(b1-4)GlcNAc", "procedure,_shortened": "as §1"}, "[8]": {"molecular_target": "Gal(b1-4)GalNAc(b1-3)[Fuc(a1-2)]Gal(b1-4)GlcNAc", "procedure,_shortened": "as §1"}, "[9]": {"molecular_target": "Gal(b1-4)Glc", "procedure,_shortened": "as §1"}, "[10]": {"molecular_target": "Gal(b1-4)Glc6S", "procedure,_shortened": "as §1"}, "[11]": {"molecular_target": "Gal(b1-4)GlcNAc", "procedure,_shortened": "as §1"}, "[12]": {"molecular_target": "Gal(b1-4)GlcNAc(a1-6)Gal(b1-4)GlcNAc", "procedure,_shortened": "as §1"}, "[13]": {"molecular_target": "Gal(b1-4)GlcNAc(b1-2)Man", "procedure,_shortened": "as §1"}, "[14]": {"molecular_target": "Gal(b1-4)GlcNAc(b1-2)Man(a1-3)Man(b1-4)GlcNAc(b1-4)GlcNAc", "procedure,_shortened": "as §1"}, "[15]": {"molecular_target": "Gal(b1-4)GlcNAc(b1-2)Man(a1-3)[Gal(b1-4)GlcNAc(b1-2)Man(a1-6)]Man(b1-4)GlcNAc(b1-4)GlcNAc", "procedure,_shortened": "as §1"}, "[16]": {"molecular_target": "Gal(b1-4)GlcNAc(b1-2)Man(a1-3)[Gal(b1-4)GlcNAc(b1-2)Man(a1-6)]Man(b1-4)GlcNAc(b1-4)[Fuc(a1-6)]GlcNAc", "procedure,_shortened": "as §1"}, "[17]": {"molecular_target": "Gal(b1-4)GlcNAc(b1-2)Man(a1-3)[Gal(b1-4)GlcNAc(b1-2)Man(a1-6)][Gal(b1-4)GlcNAc(b1-4)]Man(b1-4)GlcNAc(b1-4)[Fuc(a1-6)]GlcNAc", "procedure,_shortened": "as §1"}, "[18]": {"molecular_target": "Gal(b1-4)GlcNAc(b1-2)Man(a1-3)[Gal(b1-4)GlcNAc(b1-2)Man(a1-6)][GlcNAc(b1-4)]Man(b1-4)GlcNAc(b1-4)[Fuc(a1-6)]GlcNAc", "procedure,_shortened": "as §1"}, "[19]": {"molecular_target": "Gal(b1-4)GlcNAc(b1-2)Man(a1-3)[GlcNAc(b1-2)Man(a1-6)]Man(b1-4)GlcNAc(b1-4)GlcNAc", "procedure,_shortened": "as §1"}, "[20]": {"molecular_target": "Gal(b1-4)GlcNAc(b1-2)Man(a1-3)[GlcNAc(b1-4)][Gal(b1-4)GlcNAc(b1-2)Man(a1-6)]Man(b1-4)GlcNAc(b1-4)GlcNAc", "procedure,_shortened": "as §1"}, "[21]": {"molecular_target": "Gal(b1-4)GlcNAc(b1-2)Man(a1-3)[Man(a1-6)]Man(b1-4)GlcNAc(b1-4)GlcNAc", "procedure,_shortened": "as §1"}, "[22]": {"molecular_target": "Gal(b1-4)GlcNAc(b1-2)Man(a1-6)Man(b1-4)GlcNAc(b1-4)GlcNAc", "procedure,_shortened": "as §1"}, "[23]": {"molecular_target": "Gal(b1-4)GlcNAc(b1-2)Man(a1-6)[GlcNAc(b1-2)Man(a1-3)]Man(b1-4)GlcNAc(b1-4)GlcNAc", "procedure,_shortened": "as §1"}, "[24]": {"molecular_target": "Gal(b1-4)GlcNAc(b1-2)Man(a1-6)[Man(a1-3)]Man(b1-4)GlcNAc(b1-4)GlcNAc", "procedure,_shortened": "as §1"}, "[25]": {"molecular_target": "Gal(b1-4)GlcNAc(b1-2)[Gal(b1-4)GlcNAc(b1-4)]Man(a1-3)[Gal(b1-4)GlcNAc(b1-2)Man(a1-6)]Man(b1-4)GlcNAc(b1-4)GlcNAc", "procedure,_shortened": "as §1"}, "[26]": {"molecular_target": "Gal(b1-4)GlcNAc(b1-2)[Gal(b1-4)GlcNAc(b1-4)]Man(a1-3)[Gal(b1-4)GlcNAc(b1-2)[Gal(b1-4)GlcNAc(b1-6)]Man(a1-6)]Man(b1-4)GlcNAc(b1-4)GlcNAc", "procedure,_shortened": "as §1"}, "[27]": {"molecular_target": "Gal(b1-4)GlcNAc(b1-2)[Gal(b1-4)GlcNAc(b1-4)]Man(a1-3)[GlcNAc(b1-4)][Gal(b1-4)GlcNAc(b1-2)Man(a1-6)]Man(b1-4)GlcNAc(b1-4)GlcNAc", "procedure,_shortened": "as §1"}, "[28]": {"molecular_target": "Gal(b1-4)GlcNAc(b1-2)[Gal(b1-4)GlcNAc(b1-4)]Man(a1-3)[GlcNAc(b1-4)][Gal(b1-4)GlcNAc(b1-2)[Gal(b1-4)GlcNAc(b1-6)]Man(a1-6)]Man(b1-4)GlcNAc(b1-4)GlcNAc", "procedure,_shortened": "as §1"}, "[29]": {"molecular_target": "Gal(b1-4)GlcNAc(b1-2)[Gal(b1-4)GlcNAc(b1-6)]Man(a1-6)[Gal(b1-4)GlcNAc(b1-2)Man(a1-3)]Man(b1-4)GlcNAc(b1-4)GlcNAc", "procedure,_shortened": "as §1"}, "[30]": {"molecular_target": "Gal(b1-4)GlcNAc(b1-2)[Gal(b1-4)GlcNAc(b1-6)]Man(a1-6)[Gal(b1-4)GlcNAc(b1-2)Man(a1-3)]Man(b1-4)GlcNAc(b1-4)[Fuc(a1-6)]GlcNAc", "procedure,_shortened": "as §1"}, "[31]": {"molecular_target": "Gal(b1-4)GlcNAc(b1-2)[Gal(b1-4)GlcNAc(b1-6)]Man(a1-6)[GlcNAc(b1-4)][Gal(b1-4)GlcNAc(b1-2)Man(a1-3)]Man(b1-4)GlcNAc(b1-4)GlcNAc", "procedure,_shortened": "as §1"}, "[32]": {"molecular_target": "Gal(b1-4)GlcNAc(b1-2)[Gal(b1-4)GlcNAc(b1-6)]Man(a1-6)[GlcNAc(b1-4)][Gal(b1-4)GlcNAc(b1-2)[Gal(b1-4)GlcNAc(b1-4)]Man(a1-3)]Man(b1-4)GlcNAc(b1-4)[Fuc(a1-6)]GlcNAc", "procedure,_shortened": "as §1"}, "[33]": {"molecular_target": "Gal(b1-4)GlcNAc(b1-3)Gal(b1-3)GalNAc", "procedure,_shortened": "as §1"}, "[34]": {"molecular_target": "Gal(b1-4)GlcNAc(b1-3)Gal(b1-3)GlcNAc", "procedure,_shortened": "as §1"}, "[35]": {"molecular_target": "Gal(b1-4)GlcNAc(b1-3)Gal(b1-4)Glc", "procedure,_shortened": "as §1"}, "[36]": {"molecular_target": "Gal(b1-4)GlcNAc(b1-3)Gal(b1-4)GlcNAc", "procedure,_shortened": "as §1"}, "[37]": {"molecular_target": "Gal(b1-4)GlcNAc(b1-3)Gal(b1-4)GlcNAc(b1-2)Man(a1-3)[Gal(b1-4)GlcNAc(b1-3)Gal(b1-4)GlcNAc(b1-2)Man(a1-6)]Man(b1-4)GlcNAc(b1-4)GlcNAc", "procedure,_shortened": "as §1"}, "[38]": {"molecular_target": "Gal(b1-4)GlcNAc(b1-3)Gal(b1-4)GlcNAc(b1-2)Man(a1-3)[Gal(b1-4)GlcNAc(b1-3)Gal(b1-4)GlcNAc(b1-2)Man(a1-6)]Man(b1-4)GlcNAc(b1-4)[Fuc(a1-6)]GlcNAc", "procedure,_shortened": "as §1"}}, "note": "Some of the results follow."}
{"binder": "B1", "values": [{"measurement": "glycan array binding signal (z-score)", "setting": "[1]", "value": 2.67}, {"measurement": "glycan array binding signal (z-score)", "setting": "[2]", "value": 1.3}, {"measurement": "glycan array binding signal (z-score)", "setting": "[3]", "value": -0.426}, {"measurement": "glycan array binding signal (z-score)", "setting": "[4]", "value": -0.447}, {"measurement": "glycan array binding signal (z-score)", "setting": "[5]", "value": -0.446}, {"measurement": "glycan array binding signal (z-score)", "setting": "[6]", "value": -0.304}, {"measurement": "glycan array binding signal (z-score)", "setting": "[7]", "value": -0.449}, {"measurement": "glycan array binding signal (z-score)", "setting": "[8]", "value": -0.432}, {"measurement": "glycan array binding signal (z-score)", "setting": "[9]", "value": -0.43}, {"measurement": "glycan array binding signal (z-score)", "setting": "[10]", "value": -0.377}, {"measurement": "glycan array binding signal (z-score)", "setting": "[11]", "value": -0.423}, {"measurement": "glycan array binding signal (z-score)", "setting": "[12]", "value": -0.431}, {"measurement": "glycan array binding signal (z-score)", "setting": "[13]", "value": 3.13}, {"measurement": "glycan array binding signal (z-score)", "setting": "[14]", "value": -0.38}, {"measurement": "glycan array binding signal (z-score)", "setting": "[15]", "value": -0.385}, {"measurement": "glycan array binding signal (z-score)", "setting": "[16]", "value": -0.427}, {"measurement": "glycan array binding signal (z-score)", "setting": "[17]", "value": -0.37}, {"measurement": "glycan array binding signal (z-score)", "setting": "[18]", "value": -0.438}, {"measurement": "glycan array binding signal (z-score)", "setting": "[19]", "value": -0.42}, {"measurement": "glycan array binding signal (z-score)", "setting": "[20]", "value": -0.436}, {"measurement": "glycan array binding signal (z-score)", "setting": "[21]", "value": 0.088}, {"measurement": "glycan array binding signal (z-score)", "setting": "[22]", "value": -0.431}, {"measurement": "glycan array binding signal (z-score)", "setting": "[23]", "value": -0.308}, {"measurement": "glycan array binding signal (z-score)", "setting": "[24]", "value": -0.437}, {"measurement": "glycan array binding signal (z-score)", "setting": "[25]", "value": -0.44}, {"measurement": "glycan array binding signal (z-score)", "setting": "[26]", "value": -0.431}, {"measurement": "glycan array binding signal (z-score)", "setting": "[27]", "value": -0.449}, {"measurement": "glycan array binding signal (z-score)", "setting": "[28]", "value": -0.305}, {"measurement": "glycan array binding signal (z-score)", "setting": "[29]", "value": -0.351}, {"measurement": "glycan array binding signal (z-score)", "setting": "[30]", "value": -0.429}, {"measurement": "glycan array binding signal (z-score)", "setting": "[31]", "value": -0.439}, {"measurement": "glycan array binding signal (z-score)", "setting": "[32]", "value": -0.414}, {"measurement": "glycan array binding signal (z-score)", "setting": "[33]", "value": -0.457}, {"measurement": "glycan array binding signal (z-score)", "setting": "[34]", "value": -0.447}, {"measurement": "glycan array binding signal (z-score)", "setting": "[35]", "value": -0.421}, {"measurement": "glycan array binding signal (z-score)", "setting": "[36]", "value": -0.387}, {"measurement": "glycan array binding signal (z-score)", "setting": "[37]", "value": -0.294}, {"measurement": "glycan array binding signal (z-score)", "setting": "[38]", "value": -0.332}]}
